{"source": "a collection of fitness landscapes (doi:10.1016/j.celrep.2020.107928)", "parents": {"B1": {"name": "Caulobacter ParB omega fusion; a variant is named by its letters at X, in order, B8GW30 (parent)", "chain": "MESVVVGEPGMSEGRRGLGRGLSALLGEVDAAPAQAPGEQLGGSREAPIEILQRNPDQPRRTFREEDLEDLSNSIREKGVLQPILVRPSPDTAGEYQIVAGERAWRAAQRAGLKTVPIMVRELDDLAVLEIGIIENVQRADLNVLEEALSYKVLMEKFERTQENIAQTIGKSXSHVANXMRLLXLPDEVQSYLVSGELTAXHARAIAAAADPVALAKQIIEGGLSVRETEALARKAPNLSAGKSKGGRPPRVKDTDTQALESDLSSVLGLDVSIDHRGSTGTLTITYATLEQLDDLCNRLTRGI"}}, "note": "In all, about 81,000 sequences were measured (“one-hybrid fitness for binding parS DNA”: median about -0.17, highest 2% from about 0.51 on). The list shows a part of the results."}
{"variants_of": "B1", "assay": "one-hybrid fitness for binding parS DNA (scaled: cognate 1, non-cognate 0); higher = stronger binding", "settings": "with parS DNA site", "method_in_brief": "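Caulobacter ParB libraries with four specificity codons randomised were screened by bacterial one-hybrid selection in the E. coli USO strain, using a HIS3 reporter whose site lies 19 bp from the promoter. Selection ran for 48 hours at 37°C on M9 lacking histidine, with 0.1 mM IPTG and 5 mM 3-AT. Plasmids were Illumina-sequenced before and after selection, three replicate libraries were pooled, and variants with under 10 reads were dropped. Fitness is the log change in each variant's read ratio to wild type, rescaled against the cognate and non-cognate sites.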"}
{"variant": "MFKT", "one-hybrid fitness for binding parS DNA": "≤ 0.2"}
{"variant": "TFDS", "one-hybrid fitness for binding parS DNA": "≤ 0.2"}
{"variant": "HCAW", "one-hybrid fitness for binding parS DNA": "≤ 0.2"}
{"variant": "NKWE", "one-hybrid fitness for binding parS DNA": "≤ 0.2"}
{"variant": "QNIV", "one-hybrid fitness for binding parS DNA": "≤ 0.2"}
{"variant": "LSHH", "one-hybrid fitness for binding parS DNA": "≤ 0.2"}
{"variant": "HMNT", "one-hybrid fitness for binding parS DNA": "≤ 0.2"}
{"variant": "AKPV", "one-hybrid fitness for binding parS DNA": "≤ 0.2"}
{"variant": "HLGE", "one-hybrid fitness for binding parS DNA": "≤ 0.2"}
{"variant": "QEMV", "one-hybrid fitness for binding parS DNA": "≤ 0.2"}
{"variant": "DCNV", "one-hybrid fitness for binding parS DNA": "≤ 0.2"}
{"variant": "FDRG", "one-hybrid fitness for binding parS DNA": "≤ 0.2"}
{"variant": "YYIS", "one-hybrid fitness for binding parS DNA": "≤ 0.2"}
{"variant": "GFTV", "one-hybrid fitness for binding parS DNA": "≤ 0.2"}
{"variant": "NGKG", "one-hybrid fitness for binding parS DNA": "≤ 0.2"}
{"variant": "PRGF", "one-hybrid fitness for binding parS DNA": "≤ 0.2"}
{"variant": "EKDR", "one-hybrid fitness for binding parS DNA": "≤ 0.2"}
{"variant": "CVHY", "one-hybrid fitness for binding parS DNA": "≤ 0.2"}
{"variant": "EPTS", "one-hybrid fitness for binding parS DNA": "≤ 0.2"}
{"variant": "ITST", "one-hybrid fitness for binding parS DNA": "≤ 0.2"}
{"variant": "IYSS", "one-hybrid fitness for binding parS DNA": "≤ 0.2"}
{"variant": "VKEG", "one-hybrid fitness for binding parS DNA": "≤ 0.2"}
{"variant": "AHPN", "one-hybrid fitness for binding parS DNA": "≤ 0.2"}
{"variant": "AVKY", "one-hybrid fitness for binding parS DNA": "≤ 0.2"}
{"variant": "RQRD", "one-hybrid fitness for binding parS DNA": "≤ 0.2"}
{"variant": "HSQC", "one-hybrid fitness for binding parS DNA": "≤ 0.2"}
{"variant": "DRVR", "one-hybrid fitness for binding parS DNA": "≤ 0.2"}
{"variant": "LTPN", "one-hybrid fitness for binding parS DNA": "≤ 0.2"}
{"variant": "SASG", "one-hybrid fitness for binding parS DNA": "≤ 0.2"}
{"variant": "CGML", "one-hybrid fitness for binding parS DNA": "≤ 0.2"}
{"variant": "YIIN", "one-hybrid fitness for binding parS DNA": "≤ 0.2"}
{"variant": "MHVD", "one-hybrid fitness for binding parS DNA": "≤ 0.2"}
{"variant": "MWMS", "one-hybrid fitness for binding parS DNA": "≤ 0.2"}
{"variant": "VMYR", "one-hybrid fitness for binding parS DNA": "≤ 0.2"}
{"variant": "QQQI", "one-hybrid fitness for binding parS DNA": "≤ 0.2"}
{"variant": "AGYS", "one-hybrid fitness for binding parS DNA": "≤ 0.2"}
{"variant": "MHNL", "one-hybrid fitness for binding parS DNA": "≤ 0.2"}
{"variant": "QCPH", "one-hybrid fitness for binding parS DNA": "≤ 0.2"}
{"variant": "ATEE", "one-hybrid fitness for binding parS DNA": "≤ 0.2"}
{"variant": "SMVS", "one-hybrid fitness for binding parS DNA": "≤ 0.2"}
{"variant": "CSNW", "one-hybrid fitness for binding parS DNA": "≤ 0.2"}
{"variant": "HTTS", "one-hybrid fitness for binding parS DNA": "≤ 0.2"}
{"variant": "SRKK", "one-hybrid fitness for binding parS DNA": "≤ 0.2"}
{"variant": "DHMT", "one-hybrid fitness for binding parS DNA": "≤ 0.2"}
{"variant": "LCWG", "one-hybrid fitness for binding parS DNA": "≤ 0.2"}
{"variant": "GEVR", "one-hybrid fitness for binding parS DNA": "≤ 0.2"}
{"variant": "RTHR", "one-hybrid fitness for binding parS DNA": "≤ 0.2"}
{"variant": "ERWT", "one-hybrid fitness for binding parS DNA": "≤ 0.2"}
{"variant": "WMEK", "one-hybrid fitness for binding parS DNA": "≤ 0.2"}
{"variant": "DPRT", "one-hybrid fitness for binding parS DNA": "≤ 0.2"}
{"variant": "QMAH", "one-hybrid fitness for binding parS DNA": "≤ 0.2"}
{"variant": "WAQG", "one-hybrid fitness for binding parS DNA": "≤ 0.2"}
{"variant": "WMPF", "one-hybrid fitness for binding parS DNA": "≤ 0.2"}
{"variant": "PVNK", "one-hybrid fitness for binding parS DNA": "≤ 0.2"}
{"variant": "RVSK", "one-hybrid fitness for binding parS DNA": "≤ 0.2"}
{"variant": "YPWN", "one-hybrid fitness for binding parS DNA": "≤ 0.2"}
{"variant": "RHWN", "one-hybrid fitness for binding parS DNA": 0.305}
{"variant": "ADQV", "one-hybrid fitness for binding parS DNA": "≤ 0.2"}
{"variant": "RFTD", "one-hybrid fitness for binding parS DNA": "≤ 0.2"}
{"variant": "LCAF", "one-hybrid fitness for binding parS DNA": "≤ 0.2"}
{"variant": "TPRM", "one-hybrid fitness for binding parS DNA": "≤ 0.2"}
{"variant": "FYGG", "one-hybrid fitness for binding parS DNA": "≤ 0.2"}
{"variant": "GAHS", "one-hybrid fitness for binding parS DNA": "≤ 0.2"}
{"variant": "CAHT", "one-hybrid fitness for binding parS DNA": "≤ 0.2"}
{"variant": "YWMT", "one-hybrid fitness for binding parS DNA": "≤ 0.2"}
{"variant": "RMGI", "one-hybrid fitness for binding parS DNA": "≤ 0.2"}
{"variant": "NLWV", "one-hybrid fitness for binding parS DNA": "≤ 0.2"}
{"variant": "ITIY", "one-hybrid fitness for binding parS DNA": "≤ 0.2"}
{"variant": "KYRF", "one-hybrid fitness for binding parS DNA": "≤ 0.2"}
{"variant": "MLRV", "one-hybrid fitness for binding parS DNA": "≤ 0.2"}
{"variant": "VPGE", "one-hybrid fitness for binding parS DNA": "≤ 0.2"}
{"variant": "PRVR", "one-hybrid fitness for binding parS DNA": "≤ 0.2"}
{"variant": "TTLH", "one-hybrid fitness for binding parS DNA": "≤ 0.2"}
{"variant": "YPEN", "one-hybrid fitness for binding parS DNA": "≤ 0.2"}
{"variant": "PNHR", "one-hybrid fitness for binding parS DNA": "≤ 0.2"}
{"variant": "LWPC", "one-hybrid fitness for binding parS DNA": "≤ 0.2"}
